Results from paper PMC12040169 (PLOS Biology, 2025).
The list shows a part of the results.

System: T1, C. trachomatis L2/434/Bu expressing GFP (CTL2-GFP)
T1 construct: L2/434/Bu GFP intracellular growth in HeLa cells
Design: species or system HeLa; C. trachomatis total inclusion area by high-content imaging, normalised to DMSO
Conditions: total inclusion area; 28.5 h, 10 µM; inhibitor
How it was run: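 After bulk GFP and resorufin fluorescence reads, cells were fixed, stained with Hoechst and imaged by high-content microscopy. Inclusion area and number (GFP) stood in for chlamydial growth, nuclei count (Hoechst) for host cell viability. MICs were derived as for the bulk readout.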

SMILES	% of control remaining
O=C(NCCOc1ccccc1)N1CCN(Cc2ccccc2)CC1 [CBK155652]	88.8865
Clc1ccc(COc2cncc(OC3CCN(CC4CC4)C3)n2)cc1Cl (stereo not shown) [CBK084443]	78.0526
COc1ccc(Cl)cc1NC(=O)CCSc1ccccc1 [CBK263969]	103.148
O=C(c1cccnc1)C1CCN(C(=O)Cc2ccc(Cl)cc2)CC1 [CBK283813]	96.5781
O=C(O)c1ccc(C(=O)O)c2c(C(=O)O)cccc12 [CBK261356]	109.371
O/N=C/c1ccc(-c2cc(Cl)ccc2Cl)o1 [CBK288500]	112.034
CCC#CC(=O)Nc1cncc(OC2CCNCC2)n1 [CBK026731T]	82.8666
COCCN(Cc1cc2ccc(C)cc2nc1O)C(=O)c1cccs1 [CBK269324]	90.3354
CCN1CCN(Cc2ccccc2[N+](=O)[O-])CC1 [CBK261561]	95.6975
N#CCCn1cc(C(=O)N2CCCCC2)c(-c2cccs2)n1 [CBK306194]	41.4972
O=C(NC1CCCC1)C1CCCN1c1nc(O)cc(C(F)(F)F)n1 (stereo not shown) [CBK003927]	94.6431
O=C(CN1CCCC2(CCN(C(=O)Cc3c[nH]c4ccccc34)C2)C1)Nc1ncccn1 (stereo not shown) [CBK132048]	80.7761
O=C1C(c2ccccc2)=C(c2ccccc2)C(c2ccc(C3=C(c4ccccc4)C(=O)C(c4ccccc4)=C3c3ccccc3)cc2)=C1c1ccccc1 [CBK261220]	98.6252
O=C(O)c1ccc(CNC(=O)c2cnc(-c3ccc(F)cc3)c(-c3ccc(O)cc3)c2)cc1 [CBK037996]	116.125
Cc1cc(OC(F)(F)F)ccc1S(=O)(=O)Nc1nc(CC(=O)O)cs1 [CBK000575]	83.327
COC(=O)[C@H](CC1CCCCC1)NS(=O)(=O)c1ccc(C(C)C)cc1 [CBK044551]	88.1809
CCOC(=O)Cn1nc(CC)n2c(cc3ccsc32)c1=O [CBK284133]	66.602
CCn1cncc1CN1CCCC(O)(c2ccc(F)cc2)CC1 (stereo not shown) [CBK284838]	104.018
NC(=O)[C@@H]1C[C@@H](O)[C@H](O)[C@H]2[C@@H]1N(c1ccccc1)C(=S)N2Cc1ccc(F)cc1 [CBK288928]	136.869
O=C(c1nn2c(c1Br)NC(c1cccs1)CC2C(F)(F)F)N1CCCC1 (stereo not shown) [CBK307180]	99.3908
CCCC/C=C/c1ccc(N2CCN(CCN(C)C)CC2)nc1 [CBK036980]	114.798
O=C(Nc1ccc2n(c1=O)C[C@H]1C[C@@H]2CN(C(=O)Cc2cccs2)C1)c1ccco1 [CBK289204]	84.2339
CCOc1cc(/C=N/O)ccc1OC(=O)c1cccc([N+](=O)[O-])c1 [CBK090036]	80.9157
O=C(CCC1CCCC1)N1C[C@@H]2CCCCN(CC3CC3)[C@@H]2C1 [CBK285531]	92.4204
CCn1cc(C(=O)O)c(=O)c2cc(F)c(N3CCN(C(=S)Nc4cccc5ccccc45)CC3)cc21 [CBK265809]	81.0008
COc1cc(C(=O)Nc2ccc(-c3nc4ncccc4o3)cc2)ccc1OCc1ccc(Cl)cc1 [CBK033914]	95.6578
COC(=O)COc1nccnc1-c1ccc(OC(F)(F)F)cc1 [CBK106849]	99.5861

SMILES	% of control remaining
Cc1ccc(S(=O)(=O)N2CCN(CCC(=O)O)CC2)cc1 [CBK269443]	99.2419
Cc1cc(Cl)c(S(=O)(=O)N2CC(C)OC(C)C2)cc1OCC(N)=O (stereo not shown) [CBK266452]	95.5001
CSCCCNC(=O)c1cc(-c2ccc(C(=O)N3CCOCC3)cc2)cnc1N [CBK158568]	87.9256
Cc1nc2sc(C(=O)OCc3cc(=O)oc4cc5c(cc34)CCC5)c(C)c2c(=O)[nH]1 [CBK297528]	77.2455
CCN(CC)CCCCC1(C)SC(NC2CCCCCC2)=NC1=O (stereo not shown) [CBK113257]	57.7057
CC(C)(CO)CNc1nc(-c2cccnc2)cnc1N [CBK063475]	110.071
COc1cnc(-c2ccccc2OC)c(NC(=O)Cc2ccccc2)n1 [CBK145260]	108.393
c1cc(-c2cncc(-c3ccsc3)n2)cs1 [CBK113356]	110.597
COc1ccc(C(=O)NCc2ccc(S(N)(=O)=O)cc2)cc1[N+](=O)[O-] [CBK263629]	88.5062
c1ccc(-c2nc(-c3ccncc3)sc2-c2ccccc2)cc1 [CBK291203]	78.8011
Cc1ccc(CN(CCCn2ccnc2)Cc2nc3ccccc3[nH]2)o1 [CBK283103]	93.8087
COC(=O)CCCC(=O)n1c(=O)n(CC2CCCCC2)c2ccccc21 [CBK106524]	90.1475
CCOC(=O)C1(Cc2cc(-c3cccc(F)c3)no2)CCNCC1 [CBK284881]	93.6648
O=C(O)C1CC=CCC1C(=O)NCCCCc1ccccc1 (stereo not shown) [CBK265460]	84.0478
CC(C)(C)c1cc(C(=O)CSc2nnc(Nc3ccccc3)n2-c2ccccc2)cc(C(C)(C)C)c1O [CBK261033]	88.5793
CC1(C)OC2C(C(=O)O)OC(n3cnc4c(N)ncnc43)C2O1 (stereo not shown) [CBK262912]	114.629
Cc1ccc(C2=CCN(CC(=O)N(C)C3CCCCC3)CC2)o1 [CBK283633]	114.015
O=C(Nc1ccc(Oc2cccnc2)cc1)C1CCCN1 (stereo not shown) [CBK282498]	95.0992
CCn1ncnc1CN1CCOc2ccc(CO)cc2C1 [CBK307245]	32.681
CN1CCC(N(C)C(=O)c2ccc(-c3ccccc3CO)cc2)C1 (stereo not shown) [CBK307432]	87.267
Cc1cc(NC(=O)C2CC2)sc1C(=O)NC(C)c1ccc(F)cc1F (stereo not shown) [CBK296625]	89.8546
Brc1ccc(OCCCCCCN2CCCCC2)cc1 [CBK261784]	93.7738
COc1cncc(C(NC(=O)Cn2ccccc2=O)[C@H]2C[C@@H](O)C2)c1 (stereo partly shown) [CBK307557]	59.7822
Cc1nc2n(CC#N)c3ccccc3n2n1 [CBK062670]	106.859
CCN1CCN(c2ccc(-c3ccc(OCC4CCN(C(=O)OC(C)(C)C)CC4)cn3)cn2)CC1 [CBK174505]	106.33
CCSc1nnc2c(n1)OC(C1CC=C(C)CC1)Nc1ccccc1-2 (stereo not shown) [CBK262367]	105.786
COc1cc(NC(=O)c2cc3nc(-c4cccs4)cc(C(F)(F)Cl)n3n2)c(C(C)=O)cc1OC [CBK268312]	109.776

SMILES	% of control remaining
O=C(c1ccc2ncccc2c1)N1CCC2(CCN(C(=O)c3cc(F)c(F)cc3F)C2)C1 (stereo not shown) [CBK131391]	106.957
Cc1ccc(/N=N/c2c(O)c(C(=O)Nc3ccc4c(c3)c(=O)[nH]c3ccccc34)cc3ccccc23)c(Cl)c1 [CBK262306]	106.777
CCCn1nnnc1NCc1cccc(Cl)c1 [CBK288130]	84.3458
C=CCNC(=O)C1CCN(c2nc3ccccc3n2CC)CC1 [CBK283920]	68.0627
O=C(Nc1ccccc1)NC(N1CCOCC1)C(Cl)(Cl)Cl (stereo not shown) [CBK261293]	97.376
COc1ccc(N2CCN(C(=S)c3ccc(OCC(N)=O)cc3)CC2)cc1 [CBK269190]	88.556
CC(=O)NS(=O)(=O)c1ccc(NC(=O)CCSc2ccc(C)cc2)cc1 [CBK296141]	61.4094
Cn1nccc1NS(=O)(=O)c1ccc(Br)cc1C(F)(F)F [CBK062082]	99.8849
O=C(NC(Cc1ccc(O)cc1)C(=O)O)c1ccccc1 (stereo not shown) [CBK260937]	101.59
CC(Cn1nnc2ccccc21)C(=O)O (stereo not shown) [CBK264727]	93.386
O=C(O)c1c2c(nc3ccccc13)CCN(Cc1ccccc1)C2 [CBK286805]	119.916
O=C(CCc1ccncc1)N1CCC(c2cc3ncccc3[nH]2)CC1 [CBK284460]	110.348
O=S(=O)(Nc1nn(Cc2ccc(C(F)(F)F)cc2)c2ccccc12)c1cccc2nsnc12 [CBK048086]	97.8486
CC1CCN(C(=O)C[C@@H]2O[C@H](CNS(=O)(=O)c3ccccc3)[C@@H](O)[C@H]2O)CC1 [CBK288927]	80.3133
Cc1ccn(CCC(=O)NC(C)c2cccnc2)n1 (stereo not shown) [CBK282197]	90.2123
O=C(CC[C@@H]1CNC(=O)[C@@H]2C[C@H](NC(=O)C3CC3)CN12)Nc1ccccc1 [CBK289006]	102.01
CN(CCc1cnn(C)c1)C(=O)NCCCN1CCCC1=O [CBK307008]	77.2333
Cn1c(OCc2cccnc2)nc2c1c(=O)n(Cc1ccc(Cl)c(Cl)c1)c(=O)n2C [CBK267498]	93.6228
O=C1NC2(CCCN(C(=O)c3cccs3)C2)Oc2ccccc21 (stereo not shown) [CBK284799]	122.716
O=C(NCCN1CCC(O)(c2cccc(F)c2)CC1)C1CCCCC1 [CBK283281]	108.838
Cc1cccc(OCC2CCCN(C(=O)CCc3nncn3C)C2)c1 (stereo not shown) [CBK306640]	98.4592
Cc1nc2c(-c3ccccc3)cnn2c(N2CCCC2)c1C [CBK287799]	101.241
COCCn1c(SCc2nc3ccccc3nc2C)nc(C)c1C [CBK305651]	55.9024
O=C(NC1CC1)[C@@H]1C=CCN1S(=O)(=O)c1ccccc1Cl [CBK285479]	91.4426
COc1ccc(OCc2nc(-c3cccs3)no2)cc1 [CBK269782]	74.9034
